Results on 60 sequences are retold here after the supplement of paper PMC10338343.

The subject of this assay is MIWI (PIWIL1) piRISC loaded with L1MC piRNA (30 nt). Briefly: pre-steady-state target cleavage rate (min^-1); MIWI and MILI are mouse PIWI proteins and EfPiwi is from a freshwater sponge; tags in brackets are library labels; higher = faster piRNA-guided slicing of the target. To be noted: guide: L1MC piRNA 5'p-UAACUAAAUACUAUGCAAGCUGUAGGUCCU
In short, it runs like this:
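The pre-steady-state cleavage rate was derived from a burst-and-steady-state fit of Cleave-'n-Seq data. For these assays, 1 nM active affinity-purified piRISC loaded with a single synthetic guide was mixed with […] a transcribed, DNA-blocked target RNA library in HEPES–potassium acetate buffer at 33 °C, with or without 500 nM GTSF1 partner protein, for 0–8 or 0–960 min. Sequencing counts of uncleaved targets were normalised to depth and to weakly complementary targets, and k3 was capped at 0.0001 min^-1 after three trials were pooled.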

[1] abbreviates: auxiliary factor: 500 nM mouse GTSF1.
[2] abbreviates: auxiliary factor: none (no GTSF1).

± gives the standard deviation. The entries are a selection whose mix differs from that of the whole data set.
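Also: 1 nM active piRISC with 0.1 nM target library at 33 °C single turnover.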

For the sequence UCCUCCUACAGCUUGCAUACUAUUUAGAAA, the “pre-steady-state target cleavage rate” value by setting is: under setting [1], 0.242 ± 0.043; under setting [2], 0.00395 ± 0.0025.

Take UGGACCUACAGCUUGCAAAGUAUAUAGUUA: the “pre-steady-state target cleavage rate” value came to 0.895 ± 0.057 under setting [1] and 0.0204 ± 0.0062 under setting [2].

For the sequence UCCUGGAUCACCUUGCAUUGUAUUUAGUUA, the “pre-steady-state target cleavage rate” value runs as follows: under setting [1], 0.0582 ± 0.01; under setting [2], 0.00816 ± 0.0021.

As to UCGACCUACACGUUGCAUAGUAUUUAGUUA, the “pre-steady-state target cleavage rate” value stood at 1.18 ± 0.036 under setting [1] and 0.0225 ± 0.0036 under setting [2].

For AGGACCUACAGGUUGCAUAGUAUUAAGUUA, the “pre-steady-state target cleavage rate” value worked out at 0.784 ± 0.069 under setting [1] and 0.0296 ± 0.0069 under setting [2].

Regarding UCCUGGAACACCUUGCAUAGUAUUUAGAUA, the “pre-steady-state target cleavage rate” value reads like this: under setting [1], 0.233 ± 0.048; under setting [2], 0.00688 ± 0.0041.

For AGGAUCUACAGCUUGCAUAGUAUUUAGUUA, the “pre-steady-state target cleavage rate” value under setting [1] is 1.7 ± 0.059 and the “pre-steady-state target cleavage rate” value under setting [2] stood at 0.105 ± 0.017.

Regarding UCCUGGAUGUCCUUGCGUAGUAUUUAGUUA, the “pre-steady-state target cleavage rate” value stood at 0.0144 ± 0.0036 under setting [1] and 0.00687 ± 0.0021 under setting [2].

For UCCUGGAUGUCCUUGCAUCGUAUUUAGUUA, the “pre-steady-state target cleavage rate” value is 0.0131 ± 0.0059 under setting [1] and 0.00455 ± 0.0017 under setting [2].

For the sequence UCCACCUACAGCUUGCAUAGUAUUUUGAUA, the “pre-steady-state target cleavage rate” value worked out at 0.365 ± 0.04 under setting [1] and 0.011 ± 0.0036 under setting [2].

Take UCCUGCUACAGCUUGCAUAGUUUUUACUUA: the “pre-steady-state target cleavage rate” value was 0.122 ± 0.021 under setting [1] and 0.0143 ± 0.0044 under setting [2].

With UCCUGGUACAGGAUGCAUAGUAUUUAGUUA, the “pre-steady-state target cleavage rate” value reads like this: under setting [1], 0.418 ± 0.044; under setting [2], 0.00284 ± 0.002.

As to UCCACCUACAGCUAGCAAAGUAUUUAGUUA, the “pre-steady-state target cleavage rate” value under setting [1] was determined as 0.839 ± 0.027 and the “pre-steady-state target cleavage rate” value under setting [2] was 0.00645 ± 0.0023.

Take AGGACGUACACCUUGCAUAGUAUUUAGUUA: the “pre-steady-state target cleavage rate” value by setting is: under setting [1], 1.15 ± 0.038; under setting [2], 0.0611 ± 0.01.

For UCCUGGAACAGCUUCCAUAGUAUUUAGUUA, the “pre-steady-state target cleavage rate” value reads like this: under setting [1], 0.0645 ± 0.015; under setting [2], 0.00407 ± 0.0015.

For UCCUGGUACACCUUGCAUACUAUUUAGUUA, the “pre-steady-state target cleavage rate” value under setting [1] was determined as 0.37 ± 0.12 and the “pre-steady-state target cleavage rate” value under setting [2] came out at 0.00989 ± 0.0043.

As to UCCUGGAACAGCUUGCAUAGAAUUUAGAAA, the “pre-steady-state target cleavage rate” value is, setting by setting: under setting [1], 0.162 ± 0.031; under setting [2], 0.00707 ± 0.0036.

On to UCCUGGAUGUGCUUGGAUAGUAUUUAGUUA, for which the “pre-steady-state target cleavage rate” value is, setting by setting: under setting [1], 0.392 ± 0.033; under setting [2], 0.0342 ± 0.007.

Turning to AGGACCUACAGCUUGCAUUCUAUUUAGUAA, the “pre-steady-state target cleavage rate” value under setting [1] was determined as 0.262 ± 0.057 and the “pre-steady-state target cleavage rate” value under setting [2] amounted to 0.00441 ± 0.0024.

As to UCCUGGAACAGCUUGCAUAGUAUUUACAAA, the “pre-steady-state target cleavage rate” value runs as follows: under setting [1], 0.357 ± 0.05; under setting [2], 0.00404 ± 0.0025.

Turning to UGGACCUACAGCUUGCAUAGUAAAUAGUUA, the “pre-steady-state target cleavage rate” value came out at 0.751 ± 0.057 under setting [1] and 0.0156 ± 0.0049 under setting [2].

Regarding UCCACCUACAGCUUGCAUAGUAUUUAGCUUA, the “pre-steady-state target cleavage rate” value by setting is: under setting [1], 0.272 ± 0.041; under setting [2], 0.0142 ± 0.004.

Turning to UCCUGGAUGAGCUUGCAUAGUACUUUAGUUA, the “pre-steady-state target cleavage rate” value under setting [1] amounted to 0.11 ± 0.014 and the “pre-steady-state target cleavage rate” value under setting [2] turned out to be 0.00854 ± 0.0028.

For UCGACCUACAGCUUGGAAAGUAUUUAGUUA, the “pre-steady-state target cleavage rate” value runs as follows: under setting [1], 1.12 ± 0.043; under setting [2], 0.00439 ± 0.0018.

Consider UGGACCUACUGCUUGCAUAGUAUUUAGUAA, for which the “pre-steady-state target cleavage rate” value under setting [1] was 0.708 ± 0.039 and the “pre-steady-state target cleavage rate” value under setting [2] turned out to be 0.0421 ± 0.008.

As to UCCUGCUACAGCUUGGAUUGUAUUUAGUUA, the “pre-steady-state target cleavage rate” value reads like this: under setting [1], 0.216 ± 0.022; under setting [2], 0.00769 ± 0.0022.

For the sequence UCCUGGUACAGCUUGCAUAGUAUUCAGUUA, the “pre-steady-state target cleavage rate” value by setting is: under setting [1], 0.197 ± 0.034; under setting [2], 0.0276 ± 0.0071.

With UCGACCUUGUGCUUGCAUAGUAUUUAGAAA, the “pre-steady-state target cleavage rate” value was 0.165 ± 0.024 under setting [1] and 0.00532 ± 0.0014 under setting [2].

For UGGACCUACAGCUUGCAUACUAUUUAGUUA, the “pre-steady-state target cleavage rate” value was 0.363 ± 0.024 under setting [1] and 0.0343 ± 0.008 under setting [2].

Consider UCCUCCAACAGCUUGCAUAGUAUUUACAAA, for which the “pre-steady-state target cleavage rate” value is, setting by setting: under setting [1], 0.306 ± 0.036; under setting [2], 0.00369 ± 0.0032.

In the case of UCCACCUACAGCUAGCAUAGUAUUUUGUUA, the “pre-steady-state target cleavage rate” value under setting [1] is 0.648 ± 0.043 and the “pre-steady-state target cleavage rate” value under setting [2] was determined as 0.00892 ± 0.0018.

Regarding UCCUGGAUGUGCUAGCAUAGUAUUUAGUUA, the “pre-steady-state target cleavage rate” value by setting is: under setting [1], 0.127 ± 0.013; under setting [2], 0.00825 ± 0.0028.

Consider UGGUGGUACAGCUUGCAUAGUAUUUAGUUA, for which the “pre-steady-state target cleavage rate” value reads like this: under setting [1], 1.3 ± 0.046; under setting [2], 0.0711 ± 0.012.

Turning to UCCACCUUCAGCUUGCAUAGUAUUAAGUUA, the “pre-steady-state target cleavage rate” value is 0.388 ± 0.037 under setting [1] and 0.0141 ± 0.0028 under setting [2].

UCCUCCAACAGCUUCCAUAGUAUUUAGUUA: the “pre-steady-state target cleavage rate” value was 0.0705 ± 0.019 under setting [1] and 0.00346 ± 0.0019 under setting [2].

As to UCGAGCAACAGCUUGCAUAGUAUUUAGUUA, the “pre-steady-state target cleavage rate” value under setting [1] worked out at 1.29 ± 0.044 and the “pre-steady-state target cleavage rate” value under setting [2] is 0.076 ± 0.013.

With UCCUGGAUCAGCUUGGUUAGUAUUUAGUAA, the “pre-steady-state target cleavage rate” value runs as follows: under setting [1], 0.389 ± 0.058; under setting [2], 0.00325 ± 0.0024.

For UCGACCAACAGCUUCCAUAGUAUUUAGUUA, the “pre-steady-state target cleavage rate” value runs as follows: under setting [1], 0.0723 ± 0.016; under setting [2], 0.0035 ± 0.0011.

As to UCCAGGUACAGCUUGCAUAGUAUUUAGUAA, the “pre-steady-state target cleavage rate” value runs as follows: under setting [1], 0.504 ± 0.036; under setting [2], 0.0352 ± 0.0064.

With UGGACCUACAGCUUGCAUAGUAUUUUGUAA, the “pre-steady-state target cleavage rate” value is, setting by setting: under setting [1], 0.272 ± 0.034; under setting [2], 0.0253 ± 0.0056.

On to UCCUGCUACAGGUUGCAUAGUAUUUAGUAA, for which the “pre-steady-state target cleavage rate” value reads like this: under setting [1], 0.858 ± 0.083; under setting [2], 0.00875 ± 0.0025.

For the sequence UCCUGGUACAGCUUGCAUAGUAUUUAGUGUA, the “pre-steady-state target cleavage rate” value under setting [1] was 0.338 ± 0.035 and the “pre-steady-state target cleavage rate” value under setting [2] came to 0.0278 ± 0.0061.

For UCCUGCUAGAGCUUGCAUAGAAUUUAGUUA, the “pre-steady-state target cleavage rate” value under setting [1] worked out at 0.252 ± 0.025 and the “pre-steady-state target cleavage rate” value under setting [2] amounted to 0.0179 ± 0.0056.

Take UCCACCUACAGGUUGCAUACUAUUUAGUUA: the “pre-steady-state target cleavage rate” value was 0.319 ± 0.033 under setting [1] and 0.0189 ± 0.0029 under setting [2].

On to UCCUGCUACUCCUUGCAUAGUAUUUAGUUA, for which the “pre-steady-state target cleavage rate” value reads like this: under setting [1], 0.821 ± 0.034; under setting [2], 0.0234 ± 0.0047.

Consider UCCUGGUACAGCUUGGUUAGUAUUUAGUAA, for which the “pre-steady-state target cleavage rate” value was 0.412 ± 0.079 under setting [1] and 0.0101 ± 0.0031 under setting [2].

Regarding AGGACCAACAGCUUGCAUAGUAUAUAGUUA, the “pre-steady-state target cleavage rate” value came out at 0.775 ± 0.054 under setting [1] and 0.0604 ± 0.013 under setting [2].

On to UCCUGGAUGAGCUUGCAUAGUAUUAUAGUUA, for which the “pre-steady-state target cleavage rate” value by setting is: under setting [1], 0.53 ± 0.049; under setting [2], 0.0138 ± 0.004.

Regarding UCCUGGAUGUGCUUGCAUUGUAUUAAGUUA, the “pre-steady-state target cleavage rate” value was found to be 0.00888 ± 0.0034 under setting [1] and 0.00366 ± 0.0026 under setting [2].

As to UCCACCUACAGCUUGCAUAGGAUUUAGUUA, the “pre-steady-state target cleavage rate” value was determined as 0.0442 ± 0.0086 under setting [1] and 0.00647 ± 0.002 under setting [2].

As for UCCACCUACAGCUUGGCAUAGUAUUUAGUUA, the “pre-steady-state target cleavage rate” value under setting [1] worked out at 0.862 ± 0.13 and the “pre-steady-state target cleavage rate” value under setting [2] is 0.0108 ± 0.0027.

With UCCUGGUUGUGCUUGCAUAGUAUUUACAAA, the “pre-steady-state target cleavage rate” value amounted to 0.0326 ± 0.011 under setting [1] and 0.00389 ± 0.0031 under setting [2].

Take UCCUGCUACAGCUCGCAUAGUAUUUAGUUA: the “pre-steady-state target cleavage rate” value reads like this: under setting [1], 1.14 ± 0.062; under setting [2], 0.0391 ± 0.0067.

On to AGGACCUACAGCUAGCAAAGUAUUUAGUUA, for which the “pre-steady-state target cleavage rate” value stood at 0.985 ± 0.048 under setting [1] and 0.00821 ± 0.0025 under setting [2].

In the case of UCGACCUAGAGCUUGCAUAGUAUAUAGUUA, the “pre-steady-state target cleavage rate” value under setting [1] was 0.697 ± 0.061 and the “pre-steady-state target cleavage rate” value under setting [2] is 0.021 ± 0.004.

For UCCUGGAUGUGCUUGCAUAGUAUUUAUGUUA, the “pre-steady-state target cleavage rate” value is, setting by setting: under setting [1], 0.202 ± 0.026; under setting [2], 0.0215 ± 0.0052.

With UCCUGGUUGUGCUUGCAUAGUAUUUAGAAA, the “pre-steady-state target cleavage rate” value was 0.0488 ± 0.012 under setting [1] and 0.00481 ± 0.0029 under setting [2].

Consider UCCUGGAUCAGCAUGCAUAGUAAUUAGUUA, for which the “pre-steady-state target cleavage rate” value was found to be 0.253 ± 0.029 under setting [1] and 0.00607 ± 0.0027 under setting [2].

Take UCCUGGUACAGCUUGGAUAGAAUUUAGUUA: the “pre-steady-state target cleavage rate” value was determined as 0.212 ± 0.059 under setting [1] and 0.0109 ± 0.0034 under setting [2].

For the sequence UCCUGGAACAGCUUGCAUAGUAUUUAGGUUA, the “pre-steady-state target cleavage rate” value was found to be 0.503 ± 0.041 under setting [1] and 0.0424 ± 0.0059 under setting [2].
